# Assay results from the supplement of paper PMC8728848.
# The list shows a part of the results.
# B1: LKPARMA (Neurospora crassa) (protein)
# chain: MSFHVTAEDARRIEVRDNRTILFARLRREDGEWNDASYELDQIIGNNDGHFQWGGGQNFTETAEDIRFHPKEGAAEQPILRARLRDCNGEFHDRDVNLTEIVENVNGEFQAKF
# Experiments:
# Assay in all cases: glycan array binding signal (z-score within array); higher = stronger binding
# Conditions in all cases: glycan notation: IUPAC condensed, linker removed
# [1] = molecular target: Man(a1-3)[Man(a1-6)]Man(a1-6)[Man(a1-2)Man(a1-3)]Man(b1-4)GlcNAc(b1-4)GlcNAc
# Outline: (§1)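 Negative Z-scores can be read as non-binding. The Z-score is calculated within each array and then averaged across arrays of one protein sequence at different concentrations or buffers and across linkers. Arrays, 3228 in all, were curated from the Consortium for Functional Glycomics database and kept only where the protein sequence was available.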
# [2] = molecular target: Man(a1-3)[Man(a1-6)]Man(a1-6)[Man(a1-3)]Man(b1-4)GlcNAc(b1-4)GlcNAc
# Outline: as §1
# [3] = molecular target: Man(a1-3)[Man(a1-6)]Man(b1-4)GlcNAc(b1-4)GlcNAc
# Outline: as §1
# [4] = molecular target: Man(b1-4)GlcNAc
# Outline: as §1
# [5] = molecular target: Neu5Ac(a2-3)Gal
# Outline: as §1
# [6] = molecular target: Neu5Ac(a2-3)Gal(b1-3)GalNAc
# Outline: as §1
# [7] = molecular target: Neu5Ac(a2-3)Gal(b1-3)GalNAc(b1-3)Gal(a1-4)Gal(b1-4)Glc
# Outline: as §1
# [8] = molecular target: Neu5Ac(a2-3)Gal(b1-3)GalNAc(b1-3)Gal(b1-4)GlcNAc
# Outline: as §1
# [9] = molecular target: Neu5Ac(a2-3)Gal(b1-3)GalNAc(b1-4)[Neu5Ac(a2-3)]Gal(b1-4)Glc
# Outline: as §1
# [10] = molecular target: Neu5Ac(a2-3)Gal(b1-3)GalNAc6S
# Outline: as §1
# [11] = molecular target: Neu5Ac(a2-3)Gal(b1-3)GlcNAc
# Outline: as §1
# [12] = molecular target: Neu5Ac(a2-3)Gal(b1-3)GlcNAc6S
# Outline: as §1
# [13] = molecular target: Neu5Ac(a2-3)Gal(b1-3)[Fuc(a1-4)]GlcNAc
# Outline: as §1
# [14] = molecular target: Neu5Ac(a2-3)Gal(b1-3)[Fuc(a1-4)]GlcNAc(b1-3)Gal(b1-4)[Fuc(a1-3)]GlcNAc
# Outline: as §1
# [15] = molecular target: Neu5Ac(a2-3)Gal(b1-3)[Neu5Ac(a2-3)Gal(b1-4)]GlcNAc
# Outline: as §1
# [16] = molecular target: Neu5Ac(a2-3)Gal(b1-3)[Neu5Ac(a2-6)]GalNAc
# Outline: as §1
# [17] = molecular target: Neu5Ac(a2-3)Gal(b1-4)Glc
# Outline: as §1
# [18] = molecular target: Neu5Ac(a2-3)Gal(b1-4)GlcNAc
# Outline: as §1
# [19] = molecular target: Neu5Ac(a2-3)Gal(b1-4)GlcNAc(b1-2)Man(a1-3)[Neu5Ac(a2-3)Gal(b1-4)GlcNAc(b1-2)Man(a1-6)]Man(b1-4)GlcNAc(b1-4)GlcNAc
# Outline: as §1
# [20] = molecular target: Neu5Ac(a2-3)Gal(b1-4)GlcNAc(b1-3)Gal(b1-4)GlcNAc
# Outline: as §1
# [21] = molecular target: Neu5Ac(a2-3)Gal(b1-4)GlcNAc(b1-3)Gal(b1-4)GlcNAc(b1-3)Gal(b1-4)GlcNAc
# Outline: as §1
# [22] = molecular target: Neu5Ac(a2-3)Gal(b1-4)GlcNAc(b1-3)Gal(b1-4)[Fuc(a1-3)]GlcNAc
# Outline: as §1
# [23] = molecular target: Neu5Ac(a2-3)Gal(b1-4)GlcNAc6S
# Outline: as §1
# [24] = molecular target: Neu5Ac(a2-3)Gal(b1-4)[Fuc(a1-3)]GlcNAc
# Outline: as §1
# [25] = molecular target: Neu5Ac(a2-3)Gal(b1-4)[Fuc(a1-3)]GlcNAc(b1-3)Gal
# Outline: as §1
# [26] = molecular target: Neu5Ac(a2-3)Gal(b1-4)[Fuc(a1-3)]GlcNAc(b1-3)Gal(b1-4)GlcNAc
# Outline: as §1
# [27] = molecular target: Neu5Ac(a2-3)Gal(b1-4)[Fuc(a1-3)]GlcNAc(b1-3)Gal(b1-4)[Fuc(a1-3)]GlcNAc(b1-3)Gal(b1-4)[Fuc(a1-3)]GlcNAc
# Outline: as §1
# [28] = molecular target: Neu5Ac(a2-3)Gal(b1-4)[Fuc(a1-3)]GlcNAc6S
# Outline: as §1
# [29] = molecular target: Neu5Ac(a2-3)Gal6S(b1-4)GlcNAc
# Outline: as §1
# [30] = molecular target: Neu5Ac(a2-3)Gal6S(b1-4)[Fuc(a1-3)]GlcNAc
# Outline: as §1
# [31] = molecular target: Neu5Ac(a2-3)GalNAc
# Outline: as §1
# [32] = molecular target: Neu5Ac(a2-3)GalNAc(b1-4)GlcNAc
# Outline: as §1
# [33] = molecular target: Neu5Ac(a2-3)[GalNAc(b1-4)]Gal(b1-4)Glc
# Outline: as §1
# [34] = molecular target: Neu5Ac(a2-3)[GalNAc(b1-4)]Gal(b1-4)GlcNAc
# Outline: as §1
# [35] = molecular target: Neu5Ac(a2-3)[Neu5Ac(a2-6)]GalNAc
# Outline: as §1
# [36] = molecular target: Neu5Ac(a2-6)Gal
# Outline: as §1
# [37] = molecular target: Neu5Ac(a2-6)Gal(b1-4)Glc
# Outline: as §1
# [38] = molecular target: Neu5Ac(a2-6)Gal(b1-4)GlcNAc
# Outline: as §1
# [39] = molecular target: Neu5Ac(a2-6)Gal(b1-4)GlcNAc(b1-3)Gal(b1-4)GlcNAc
# Outline: as §1
# [40] = molecular target: Neu5Ac(a2-6)Gal(b1-4)GlcNAc(b1-3)Gal(b1-4)[Fuc(a1-3)]GlcNAc(b1-3)Gal(b1-4)[Fuc(a1-3)]GlcNAc
# Outline: as §1
# [41] = molecular target: Neu5Ac(a2-6)Gal(b1-4)GlcNAc6S
# Outline: as §1
# [42] = molecular target: Neu5Ac(a2-6)GalNAc
# Outline: as §1
# [43] = molecular target: Neu5Ac(a2-6)GalNAc(b1-4)GlcNAc
# Outline: as §1
# [44] = molecular target: Neu5Ac(a2-8)Neu5Ac
# Outline: as §1
# [45] = molecular target: Neu5Ac(a2-8)Neu5Ac(a2-3)Gal(b1-4)Glc
# Outline: as §1
binder,measurement,setting,value
B1,glycan array binding signal (z-score),[1],-0.249
same,glycan array binding signal (z-score),[2],-0.241
same,glycan array binding signal (z-score),[3],-0.247
same,glycan array binding signal (z-score),[4],-0.251
same,glycan array binding signal (z-score),[5],-0.2
same,glycan array binding signal (z-score),[6],-0.247
same,glycan array binding signal (z-score),[7],-0.24
same,glycan array binding signal (z-score),[8],-0.246
same,glycan array binding signal (z-score),[9],-0.252
same,glycan array binding signal (z-score),[10],-0.253
same,glycan array binding signal (z-score),[11],-0.251
same,glycan array binding signal (z-score),[12],-0.248
same,glycan array binding signal (z-score),[13],-0.221
same,glycan array binding signal (z-score),[14],0.305
same,glycan array binding signal (z-score),[15],-0.25
same,glycan array binding signal (z-score),[16],-0.251
same,glycan array binding signal (z-score),[17],0.489
same,glycan array binding signal (z-score),[18],-0.253
same,glycan array binding signal (z-score),[19],-0.241
same,glycan array binding signal (z-score),[20],-0.235
same,glycan array binding signal (z-score),[21],-0.244
same,glycan array binding signal (z-score),[22],-0.253
same,glycan array binding signal (z-score),[23],-0.254
same,glycan array binding signal (z-score),[24],-0.251
same,glycan array binding signal (z-score),[25],-0.247
same,glycan array binding signal (z-score),[26],-0.14
same,glycan array binding signal (z-score),[27],-0.212
same,glycan array binding signal (z-score),[28],-0.25
same,glycan array binding signal (z-score),[29],-0.245
same,glycan array binding signal (z-score),[30],-0.252
same,glycan array binding signal (z-score),[31],-0.246
same,glycan array binding signal (z-score),[32],-0.248
same,glycan array binding signal (z-score),[33],-0.252
same,glycan array binding signal (z-score),[34],-0.251
same,glycan array binding signal (z-score),[35],-0.247
same,glycan array binding signal (z-score),[36],0.009
same,glycan array binding signal (z-score),[37],-0.199
same,glycan array binding signal (z-score),[38],-0.249
same,glycan array binding signal (z-score),[39],-0.23
same,glycan array binding signal (z-score),[40],-0.19
same,glycan array binding signal (z-score),[41],-0.25
same,glycan array binding signal (z-score),[42],-0.25
same,glycan array binding signal (z-score),[43],-0.252
same,glycan array binding signal (z-score),[44],-0.253
same,glycan array binding signal (z-score),[45],-0.247
